A lower IC50 marks a more sensitive line; a limit (>, <) means that the fit lies beyond the doses tested. AUC, from the same fit, is the share of area under the viability curve across the 256-fold dose range; the more sensitive the line, the further below 1. Where the top dose is marked as inferred, it was derived from the fitted curves, not read from the paper.

Compound in one experiment: CC(C)=CC[C@@H](O)C1=CC(=O)c2c(O)ccc(O)c2C1=O [Shikonin]
In words: Viability of human cancer cell lines after 72 h of drug (GDSC screen). To be noted: top dose 16 µM; top dose inferred. The method, then: (§1)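 Human cancer cell lines in 384-well plates, medium with 10% serum, drug for 72 h over a 256-fold dose range (nine 2-fold or five 4-fold steps up to the top dose). Adherent lines were fixed and stained with the nucleic acid dye Syto60, suspension lines read with resazurin; signal relative to control wells, capped at 0 and 100%. One two-parameter sigmoid per drug and line, fitted in a mixed model over all curves with the slope shared within a line.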
Usually IC50 stands for the point on the concentration scale where inhibition reaches its midpoint. Take GP5d (large intestine, adherent): the AUC came out at 0.536 and the IC50 came out at 1240 nM.

With IM-95 (stomach, adherent), the AUC came out at 0.48 and the IC50 was 877 nM.

Consider OVMIU (ovary, adherent), for which the AUC was 0.736 and the IC50 came out at 5670 nM.

On to “P12-ICHIKAWA (T-cell lymphoblastic leukaemia, suspension)”, for which the AUC amounted to 0.523 and the IC50 stood at 1140 nM.

For PA-TU-8902 (pancreas, adherent), the AUC came out at 0.652 and the IC50 was 2850 nM.

For PANC-03-27 (pancreas, adherent), the AUC was found to be 0.319 and the IC50 was 323 nM.

As to PANC-04-03 (pancreas, adherent), the AUC worked out at 0.59 and the IC50 stood at 2040 nM.

For the cell line “PC-3 [JPC-3] (lung adenocarcinoma, adherent)”, the AUC worked out at 0.522 and the IC50 turned out to be 1170 nM.

On to PCI-15A (head and neck, adherent), for which the AUC turned out to be 0.471 and the IC50 stood at 832 nM.

For PE/CA-PJ15 (head and neck, adherent), the AUC is 0.564 and the IC50 turned out to be 1520 nM.

For RH-41 (rhabdomyosarcoma, adherent), the AUC is 0.444 and the IC50 was 723 nM.

RPMI-2650 (head and neck, adherent): the AUC is 0.368 and the half-inhibitory concentration (IC50) is 419 nM.

For SAS (head and neck, adherent), the AUC was 0.494 and the half-maximal inhibitory concentration (IC50) worked out at 963 nM.

Turning to “SBC-5 (small cell lung carcinoma, adherent)”, the AUC is 0.445 and the IC50 came to 731 nM.

Consider SCC-9 (head and neck, adherent), for which the AUC amounted to 0.272 and the IC50 was 184 nM.

In the case of SCC-25 (head and neck, adherent), the AUC came to 0.347 and the IC50 stood at 353 nM.

Turning to SISO (cervix, adherent), the AUC worked out at 0.425 and the IC50 was determined as 628 nM.

Take SK-HEP-1 (liver, adherent): the AUC was found to be 0.399 and the IC50 was determined as 539 nM.

Take SKG-IIIa (cervix, adherent): the AUC turned out to be 0.688 and the concentration for half-maximal inhibition (IC50) came out at 4060 nM.

Turning to SNU-182 (liver, adherent), the AUC amounted to 0.656 and the IC50 worked out at 2770 nM.

SNU-423 (liver, adherent): the AUC was 0.337 and the 50% inhibitory concentration (IC50) amounted to 325 nM.

For the cell line SNU-449 (liver, adherent), the AUC is 0.464 and the IC50 was determined as 792 nM.

In the case of SUIT-2 (pancreas, adherent), the AUC came to 0.552 and the IC50 stood at 1400 nM.

In the case of SW13 (adrenal gland, adherent), the AUC amounted to 0.508 and the IC50 stood at 1050 nM.

Take SW780 (bladder, adherent): the AUC turned out to be 0.411 and the half-maximal inhibitory concentration (IC50) is 555 nM.

Consider SW1417 (large intestine, adherent), for which the AUC came to 0.467 and the IC50 was 801 nM.

With SiHa (cervix, adherent), the AUC worked out at 0.723 and the IC50 is 4780 nM.

For the cell line T98G (glioma, adherent), the AUC was determined as 0.527 and the IC50 was 1170 nM.

T-T (oesophagus, adherent): the AUC turned out to be 0.419 and the IC50 turned out to be 602 nM.

Take TGBC11TKB (stomach, adherent): the AUC is 0.656 and the IC50 is 2550 nM.

Take U-118-MG (glioma, adherent): the AUC stood at 0.508 and the IC50 was 1060 nM.

Consider WM793B (melanoma, adherent), for which the AUC amounted to 0.438 and the IC50 amounted to 666 nM.

As to YAPC (pancreas, adherent), the AUC worked out at 0.758 and the IC50 was found to be 6840 nM.

For the cell line YKG-1 (glioma, adherent), the AUC is 0.27 and the IC50 came out at 218 nM.

Compound in another experiment: Cc1ccc(-n2nc(C(C)(C)C)cc2NC(=O)Nc2ccc(OCCN3CCOCC3)c3ccccc23)cc1 [BIRB 0796]
The description is as above. Particulars: top dose 10 µM; top dose inferred. The method, then:
as §1
For OVMIU (ovary, adherent), the AUC was 0.955 and the IC50 is over 10000 nM.

“P12-ICHIKAWA (T-cell lymphoblastic leukaemia, suspension)”: the AUC is 0.993 and the IC50 is over 10000 nM.

For PA-TU-8902 (pancreas, adherent), the AUC is 0.982 and the concentration for half-maximal inhibition (IC50) is over 10000 nM.

For the cell line PANC-03-27 (pancreas, adherent), the AUC is 0.965 and the IC50 is over 10000 nM.

As to PANC-04-03 (pancreas, adherent), the AUC turned out to be 0.964 and the IC50 is over 10000 nM.

With “PC-3 [JPC-3] (lung adenocarcinoma, adherent)”, the AUC amounted to 0.964 and the half-inhibitory concentration (IC50) was over 10000 nM.

On to PCI-15A (head and neck, adherent), for which the AUC was found to be 0.807 and the IC50 amounted to 5180 nM.

Turning to PE/CA-PJ15 (head and neck, adherent), the AUC was determined as 0.944 and the IC50 is over 10000 nM.

For RH-41 (rhabdomyosarcoma, adherent), the AUC was 0.906 and the IC50 was 9750 nM.

With RPMI-2650 (head and neck, adherent), the AUC was determined as 0.976 and the IC50 was over 10000 nM.

As for SAS (head and neck, adherent), the AUC came to 0.904 and the IC50 is over 10000 nM.

As for “SBC-5 (small cell lung carcinoma, adherent)”, the AUC was 0.993 and the IC50 was over 10000 nM.

On to SCC-9 (head and neck, adherent), for which the AUC was found to be 0.95 and the IC50 was over 10000 nM.

For the cell line SCC-25 (head and neck, adherent), the AUC turned out to be 0.982 and the IC50 is over 10000 nM.

Take SISO (cervix, adherent): the AUC came to 0.965 and the IC50 is over 10000 nM.

For SK-HEP-1 (liver, adherent), the AUC worked out at 0.989 and the IC50 was over 10000 nM.

Turning to SKG-IIIa (cervix, adherent), the AUC is 0.98 and the IC50 is over 10000 nM.

On to SNU-182 (liver, adherent), for which the AUC came to 0.905 and the IC50 was over 10000 nM.

As to SNU-423 (liver, adherent), the AUC amounted to 0.928 and the IC50 is over 10000 nM.

For the cell line SNU-449 (liver, adherent), the AUC turned out to be 0.984 and the concentration for half-maximal inhibition (IC50) is over 10000 nM.

In the case of SUIT-2 (pancreas, adherent), the AUC worked out at 0.965 and the IC50 is over 10000 nM.

As to SW13 (adrenal gland, adherent), the AUC was 0.983 and the IC50 is over 10000 nM.

For the cell line SW780 (bladder, adherent), the AUC was 0.95 and the half-maximal inhibitory concentration (IC50) was over 10000 nM.

For the cell line SW1417 (large intestine, adherent), the AUC is 0.966 and the IC50 is over 10000 nM.

In the case of SiHa (cervix, adherent), the AUC turned out to be 0.912 and the IC50 is over 10000 nM.

On to T98G (glioma, adherent), for which the AUC was determined as 0.989 and the IC50 is over 10000 nM.

As for T-T (oesophagus, adherent), the AUC stood at 0.895 and the IC50 is over 10000 nM.

Consider TGBC11TKB (stomach, adherent), for which the AUC worked out at 0.992 and the IC50 is over 10000 nM.

As for U-118-MG (glioma, adherent), the AUC was 0.984 and the IC50 was over 10000 nM.

With WM793B (melanoma, adherent), the AUC was 0.984 and the 50% inhibitory concentration (IC50) was over 10000 nM.

With YAPC (pancreas, adherent), the AUC stood at 0.979 and the IC50 is over 10000 nM.

For the cell line YKG-1 (glioma, adherent), the AUC was found to be 0.976 and the IC50 was over 10000 nM.

The values above are taken from the supplement of paper PMC4967469.
